# Laboratory results: the RNAGym collection of RNA variant scans (doi:10.1073/pnas.2313332121)
# This sample is rich in variants without activity.
# B1: TPR 5TU (parent)
# chain: GGAUCUUCUCGAUCUAACAAAAAAGACAAAUCUGCCACAAAGCUUGAGAGCAUCUUCGGAUGCAGAGGCGGCAGCCUUCGGUGGCGCGAUAGCGCCAACGUUCUCAACUAUGACACGCAAAACGCGUGCUCCGUUGAAUGGAGUUUAUCAUG
# Variants of: B1
# Assay: polymerase ribozyme fitness, log enrichment relative to wild type (log ratio); higher = more active; in vitro selection for triplet polymerase activity
# Method in brief: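 Fitness measures genotype enrichment against wild-type enrichment on a logarithmic scale, with inverse-variance-weighted averaging of replicates. The logarithm is base 2, and genotypes were kept only with ≥10 input reads and ≥1 read per output in Illumina sequencing. The sequenced libraries came from one triplicate in vitro selection round, including frozen incubation at −7 °C, of PCR-built, transcribed mutant libraries of each subunit of a heterodimeric triplet polymerase ribozyme.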
row,Variant,polymerase ribozyme fitness (log ratio)
1,GGAUCUUCUCGAUCUAACAAAAAAGACAAAUCUGCCACAAAGCUUGAGAGCAUCUUCGGAUGCAGAGGCGGCAGCCUUCGGUGGCGCGCUAGGGCCAACGUUCUCAACUAUGACACGCAAAACGCGUGCUCCGUUGAAUGGAGUUUAUCCUG [A89C C93G A150C],≤ -4.2
2,GGAUCUUCUCGAUCUAACAAAAAAGACAAAUCUGCCACAAAGCUUGAGAGCAUCUUCGGAUGCAGAGGCGGCAGCCUUCGGUGGCGCGGUAGCGCCAACGUUCUCAUCUAUGACACGCAAAACGCGUGCUCCGAAGAAUGGCGUUUAUCAUG [A89G A107U U134A U135A A142C],≤ -4.2
3,GGAUCUUCUCGAUCUAACAAAAAAGACAAAUCUGCCACAAAGCUUGAGAGCAUCUUCGGAUGCAGAGGCGGCAGCCUUCGGUGGCGCGCUAGCGCCAACGUUCUUAACUAUGACACGCAAAACGCGUGCUCCGUUGAAUGGAGUUUAUCAUG [A89C C105U],0.174
4,GGAUCUUCUCGAUCUAACAAAAAAGACAAAUCUGCCACAAAGCUUGAGAGCAUCUUCGGAUGCAGAGGCGGCAGCCUUCGGUGGCGCGAAAGCGCCAACGUUCUCAACUAUGACACGCAAAACGCGUGCUCCGUUGAAUGCAGUUUAUCAUG [U90A G141C],≤ -4.2
5,GGAUCUUCUCGAUCUAACAAAAAAGACAAAUCUGCCACAAAGCUUGAGAGCAUCUUCGGAUGCAGAGGCGGCAGCCUUCGGUGGCGCGUUAGCCCCAACGUUCUCAACUAUGAAACGCAAAACGCGAGCUCCGUUGAAUGGAGUUUAUCAUG [A89U G94C C114A U127A],≤ -4.2
6,GGAUCUUCUCGAUCUAACAAAAAAGACAAAUCUGCCACAAAGCUUGAGAGCAUCUUCGGAUGCAGAGGCGGCAGCCUUCGGUGGCGCCAUAGCGCCAACGUUCUCAACUAUGACACGCAAAACGCGUGCUCCGUUGAAUGGAGUCUAUCAUG [G88C U145C],≤ -4.2
7,GGAUCUUCUCGAUCUAACAAAAAAGACAAAUCUGCCACAAAGCUUGAGAGCAUCUUCGGAUGCAGAGGCGGCAGCCUUCGGUGGCGCGUUAGCGGCAACGUUGUCAACUAUGACACGCAAAACGCGUGCUCCCUGGAAUGGAGUUUAUCAUG [A89U C95G C103G G133C U135G],≤ -4.2
8,GGAUCUUCUCGAUCUAACAAAAAAGACAAAUCUGCCACAAAGCUUGAGAGCAUCUUCGGAUGCAGAGGCGGCAGCCUUCGGUGGCGCUAUAGCGCCAACGUUGUAAACAAUGACACGCAAAACGCGUGCUCCGUUGAAUGGCGUUUACCAUG [G88U C103G C105A U109A A142C U148C],≤ -4.2
9,GGAUCUUCUCGAUCUAACAAAAAAGACAAAUCUGCCACAAAGCUUGAGAGCAUCUUCGGAUGCAGAGGCGGCAGCCUUCGGUGGCGCGCUAGCGCCAACGUUAUCAACUAUGACACGCAAAACGCGUGCUCCGUUGAAUGGAGUUUAUCAUG [A89C C103A],-2.11
10,GGAUCUUCUCGAUCUAACAAAAAAGACAAAUCUGCCACAAAGCUUGAGAGCAUCUUCGGAUGCAGAGGCGGCAGCCUUCGGUGGCGCUAUAGCGCCAGCGUUCUCAACUAUGACACACAAAACGCGUGCUCCGUUGAAUGGAGUUUAUCAUG [G88U A98G G117A],≤ -4.2
11,GGAUCUUCUCGAUCUAACAAAAAAGACAAAUCUGCCACAAAGCUUGAGAGCAUCUUCGGAUGCAGAGGCGGCAGCCUUCGGUGGCGCUAUAGCGCCAACGUUCUCAACUAUGACACGCAAUACGCGUGCUCCGUUGAAUGGAGUUUAUCAUG [G88U A121U],≤ -4.2
12,GGAUCUUCUCGAUCUAACAAAAAAGACAAAUCUGCCACAAAGCUUGAGAGCAUCUUCGGAUGCAGAGGCGGCAGCCUUCGGUGGCGCGUUAGGGCCAACGUUCUCAACUAUGACACGCAAAACGCGUGCUCCGUUGAAUGGAGUUUUUCAUG [A89U C93G A147U],-2.7
13,GGAUCUUCUCGAUCUAACAAAAAAGACAAAUCUGCCACAAAGCUUGAGAGCAUCUUCGGAUGCAGAGGCGGCAGCCUUCGGUGGCGCUAUAGCGCCAACGUUCUCAACUAUGACACGCAAAACGCGUACUCCGUUGAAUGGAGUUUAUCAUG [G88U G128A],≤ -4.2
14,GGAUCUUCUCGAUCUAACAAAAAAGACAAAUCUGCCACAAAGCUUGAGAGCAUCUUCGGAUGCAGAGGCGGCAGCCUUCGGUGGCGCGCUAGGGCUAACGUUCUCAACUAUGACACGCAAAACGCGUGCUCCGUUGAAUGGAGUUUAGCAUG [A89C C93G C96U U148G],≤ -4.2
15,GGAUCUUCUCGAUCUAACAAAAAAGACAAAUCUGCCACAAAGCUUGAGAGCAUCUUCGGAUGCAGAGGCGGCAGCCUUCGGUGGCGCGGUAGCGCCAACGUUCUCAACUAUGACACGCAAACCGCGUGCUCCGUUGAAUGGAGUUUAUCAUG [A89G A122C],-1.77
16,GGAUCUUCUCGAUCUAACAAAAAAGACAAAUCUGCCACAAAGCUUGAGAGCAUCUUCGGAUGCAGAGGCGGCAGCCUUCGGUGGCGCGAAAGCGCCAACGUUCUCAACUAUGUCACGCAAAACGCGUGCUCCGUUGAAUGGAGUUUAUCAUG [U90A A113U],≤ -4.2
17,GGAUCUUCUCGAUCUAACAAAAAAGACAAAUCUGCCACAAAGCUUGAGAGCAUCUUCGGAUGCAGAGGCGGCAGCCUUCGGUGGCGCGCUAGGGCCAACGUGAUCAACUAUGACACGCAAAACGCGUGCUCCGUUGAAUGGAGUGUAUCAUG [A89C C93G U102G C103A U145G],≤ -4.2
18,GGAUCUUCUCGAUCUAACAAAAAAGACAAAUCUGCCACAAAGCUUGAGAGCAUCUUCGGAUGCAGAGGCGGCAGCCUUCGGUGGCGCGGAGGCGCCAAGUUUCUCAACUAUGACAAGCAAAACGCGUGCUCCGUUGAAUGGAGUCUAGCAUG [A89G U90A A91G C99G G100U C116A U145C U148G],≤ -4.2
19,GGAUCUUCUCGAUCUAACAAAAAAGACAAAUCUGCCACAAAGCUUGAGAGCAUCUUCGGAUGCAGAGGCGGCAGCCUUCGGUGGCGCGAAAGCGCCAACGUUCUCGACUAUGACACGCAAAACGCGUGAUCCGUUGAAUGGAGUUUAUCAUG [U90A A106G C129A],≤ -4.2
